Measured values reported in PubChem BioAssay (NCI).
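Values below derive from 48-hour exposures of cells grown in 96-well plates, with endpoints linearly interpolated between the two concentrations bracketing the appropriate inhibition level. TGI marks complete inhibition of growth.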

What was measured:
Experiment in all cases: NCI-60 cell line screen, 48 h
A498 renal = test system: A498 renal
A549 NSCLC = test system: A549 NSCLC
ACHN renal = test system: ACHN renal
BT-549 breast = test system: BT-549 breast
CAKI-1 renal = test system: CAKI-1 renal
CCRF-CEM leukemia = test system: CCRF-CEM leukemia
COLO 205 colon = test system: COLO 205 colon
DU-145 prostate = test system: DU-145 prostate
EKVX NSCLC = test system: EKVX NSCLC
HCC-2998 colon = test system: HCC-2998 colon
HCT-116 colon = test system: HCT-116 colon
HCT-15 colon = test system: HCT-15 colon
HL-60(TB) leukemia = test system: HL-60(TB) leukemia
HOP-62 NSCLC = test system: HOP-62 NSCLC
HOP-92 NSCLC = test system: HOP-92 NSCLC
HS 578T breast = test system: HS 578T breast
HT29 colon = test system: HT29 colon
IGROV1 ovarian = test system: IGROV1 ovarian
K-562 leukemia = test system: K-562 leukemia
KM12 colon = test system: KM12 colon
LOX IMVI melanoma = test system: LOX IMVI melanoma
M14 melanoma = test system: M14 melanoma
MALME-3M melanoma = test system: MALME-3M melanoma
MCF7 breast = test system: MCF7 breast
MDA-MB-231 breast = test system: MDA-MB-231 breast
MDA-MB-435 = test system: MDA-MB-435
MDA-N = test system: MDA-N
MOLT-4 leukemia = test system: MOLT-4 leukemia
NCI-H226 lung = test system: NCI-H226 lung
NCI-H23 lung = test system: NCI-H23 lung
NCI-H460 lung = test system: NCI-H460 lung
NCI-H522 lung = test system: NCI-H522 lung
OVCAR-3 ovarian = test system: OVCAR-3 ovarian
OVCAR-4 ovarian = test system: OVCAR-4 ovarian
OVCAR-5 ovarian = test system: OVCAR-5 ovarian
OVCAR-8 ovarian = test system: OVCAR-8 ovarian
PC-3 prostate = test system: PC-3 prostate
RPMI-8226 leukemia = test system: RPMI-8226 leukemia
RXF 393 renal = test system: RXF 393 renal
SF-268 CNS = test system: SF-268 CNS
SF-295 CNS = test system: SF-295 CNS
SF-539 CNS = test system: SF-539 CNS
SK-MEL-2 melanoma = test system: SK-MEL-2 melanoma
SK-MEL-28 melanoma = test system: SK-MEL-28 melanoma
SK-MEL-5 melanoma = test system: SK-MEL-5 melanoma
SK-OV-3 ovarian = test system: SK-OV-3 ovarian
SN12C renal = test system: SN12C renal
SNB-19 CNS = test system: SNB-19 CNS
SNB-75 CNS = test system: SNB-75 CNS
SW-620 colon = test system: SW-620 colon
TK-10 renal = test system: TK-10 renal
U251 CNS = test system: U251 CNS
UACC-257 melanoma = test system: UACC-257 melanoma
UACC-62 melanoma = test system: UACC-62 melanoma

Measured: TGI

O=C(/C=C/c1ccccc1)Nc1ccccc1Cl
> 100 µM: A498 renal | A549 NSCLC | ACHN renal | BT-549 breast | CAKI-1 renal | CCRF-CEM leukemia | COLO 205 colon | DU-145 prostate | EKVX NSCLC | HCC-2998 colon | HCT-116 colon | HCT-15 colon | HL-60(TB) leukemia | HOP-62 NSCLC | HOP-92 NSCLC | HS 578T breast | HT29 colon | IGROV1 ovarian | K-562 leukemia | KM12 colon | LOX IMVI melanoma | M14 melanoma | MALME-3M melanoma | MCF7 breast | MDA-MB-231 breast | MDA-MB-435 | MDA-N | MOLT-4 leukemia | NCI-H226 lung | NCI-H23 lung | NCI-H460 lung | NCI-H522 lung | OVCAR-3 ovarian | OVCAR-4 ovarian | OVCAR-5 ovarian | OVCAR-8 ovarian | PC-3 prostate | RPMI-8226 leukemia | RXF 393 renal | SF-268 CNS | SF-295 CNS | SF-539 CNS | SK-MEL-2 melanoma | SK-MEL-28 melanoma | SK-MEL-5 melanoma | SK-OV-3 ovarian | SN12C renal | SNB-19 CNS | SNB-75 CNS | SW-620 colon | TK-10 renal | U251 CNS | UACC-257 melanoma | UACC-62 melanoma
